Self-cleavage data for 56 variants are collected here from the RNAGym collection of RNA variant scans (doi:10.7554/elife.90254).

Read counts are not given, so values of variants with three or more changes are uncertain.

B1: LINE1-mini (parent)
chain: GGCAGAGCUCAACACAGCGUGGCAAAGUGGCUGUGGCUAGACUGCC

This data set covers variants of B1. In words: self-cleavage, relative activity (ratio to wild type); higher = more cleavage; in vitro, sequencing; the parent is a self-cleaving ribozyme.
Turning to GGAACAGCUCAACACAGCGUGGGAAAGUCGCUGCGGCUAGAAUGCC [C3A G5C C23G G29C U34C C42A], the self-cleavage was found to be 0.31. On to GGAAGAGCUCAACACAGUGUGGCAAAGUGGCUGUGGCUCGACUGUC [C3A C18U A39C C45U], for which the self-cleavage came out at 0.21. The figure for GGAACAGCUCAACACAGGGAGGUAAAGUGGCUGUGGCUAGACUGCC [C3A G5C C18G U20A C23U] is 0.05. In the case of GGAACAACUCAACACAGCGUGGCAAAGUGGCUGUGGCUAGACUGCC [C3A G5C G7A], the self-cleavage came to 0.56. GGAAGAGCUCAACACAGUGUGGCAAAGUGGCUGUGGGUAGACUGCC [C3A C18U C37G]: the self-cleavage was found to be 0.08. The figure for GGAAGAGCUCAACACAGCGUGGACAAGUGGCUGUGGCGAGACUGCC [C3A C23A A24C U38G] is 0.02. The figure for GGAAUAGCUCAACACAGCUUGGCAAAGUGACUGUGGCUAGACUGCC [C3A G5U G19U G30A] is 0.16; for GGAAGAGCUCAACACAGCGUGGCAAAGUGGGUGUGGUUAGACCGCC [C3A C31G C37U U43C] it is 0.08; for GGAACAGCUCAACACACCGUGGCAAAGUGGCUGUGGCUUGACUGCC [C3A G5C G17C A39U] it is 0.07.

Turning to GGAAAAGCUCAACACAGCGUGCCAAAGUGGCUGUGGCUACACUGCC [C3A G5A G22C G40C], the self-cleavage worked out at 0.4. The figure for GGAAGAGCUCAACAUAGCGUAGCAAAGUGGCCGUGUCUACUCUGCC [C3A C15U G21A U32C G36U G40C A41U] is 0.05. The value for GGAAUAGCUCAACACAGCGUGGCAAAGUGACUGUGGCUAGACUGCC [C3A G5U G30A] was 0.47; that for GGAAAAGCUCAAUUCAGCGUGCCAAUGUGGCUGUGGCUAGACUGCC [C3A G5A C13U A14U G22C A26U] was 0.71. Take GGAAGAGCUCAACACAGAAUGGCAAAGUGGCUGUGGCUAUACUGCC [C3A C18A G19A G40U]: the self-cleavage came to 0.03. The figure for GGAAUAGCUCAACACAGCGUGGCGAAGUGGCUGUGGCUAGACUGAC [C3A G5U A24G C45A] is 0.08; for GGAAUAGCUCAACUCAGCGUGGCAAAGUGGCUGUGGCUAGUCUGCC [C3A G5U A14U A41U] it is 0.21. The figure for GGAAUAGCACAAUACAGCGUGGCGAAGUGGCUGUGGCUAGACUGCG [C3A G5U U9A C13U A24G C46G] is 0.62; for GGAAGAGCUCAACACAGCGUGGGAAAGUAGCUGUGGCUAGACUACC [C3A C23G G29A G44A] it is 0.55; for GGAAUAGCUCAACAUAGCAUGGCAAAGUGGCUGUGGCUAGACUGCC [C3A G5U C15U G19A] it is 0.48. The figure for GGAAGAGCUCAACACAGUGUGGCAAAGUGGCGGUGGCUAGACUGCC [C3A C18U U32G] is 0.09; for GGAAGAACUCAACACAGCGUGGCAAAGUGUCUGCGGCUAGAGUGCC [C3A G7A G30U U34C C42G] it is 0.67; for GGAAGAGCUCAACACAGCGUGGUAAAGUGGCUGUGGCUACACUGCC [C3A C23U G40C] it is 0.07. For GGAAAAGCUCAACACAGCGAGGCAAAGUGGCUGUGUCUAGACUGCC [C3A G5A U20A G36U], the self-cleavage was 0.25.

In the case of GGAAGAGCUCAACACAGUGUGGCAAAGUGGCUGUAGCUAGACUGCC [C3A C18U G35A], the self-cleavage came to 0.26.

Regarding GGAACAGCUCAACACAGCGUGGCAAAGUGGCUGUGCCUAGACUACC [C3A G5C G36C G44A], the self-cleavage stood at 0.04. With GGAACAGCUCAGCACAGAGUGGCAAAGCGGCUGUGUCUAGAGUGCC [C3A G5C A12G C18A U28C G36U C42G], the self-cleavage is 0.18.

In the case of GGAAGAACUCAACUCCGCGAGGCAGCGUGGCUGUGGCUAGACUGCC [C3A G7A A14U A16C U20A A25G A26C], the self-cleavage was 0.37. On to GGAAAAUCUCAACACAGUGUGGUAAAGUGGCUGUGGCUAAACUGCC [C3A G5A G7U C18U C23U G40A], for which the self-cleavage stood at 0.24. The figure for GGAAGAACUCAACAAAGCGUGGCAAAGUGGCUGUGGCAAGACUGAA [C3A G7A C15A U38A C45A C46A] is 0.08; for GGAAGAGCUCAACACAGCGUGGUAAAGUGGCUGAGGCUAGACUGCC [C3A C23U U34A] it is 0.11; for GGAAUAGGUCUACACAGCGUGGCAAACUGGCUGUGGAUAGACUGCC [C3A G5U C8G A11U G27C C37A] it is 0.01. With GGAAGAACUCAACACAGCAUGGCAAAGUUGCUGUGGCUAAACUGUC [C3A G7A G19A G29U G40A C45U], the self-cleavage is 0.11. The figure for GGAAAAGCUCAACACAGCGUGGCAAAGUCGCUGUGGCUAGACUGCC [C3A G5A G29C] is 0.05; for GGAAGAGCUCAACAGAGCUUGGCAAAGUGGAUGUGGCUAGACUGCC [C3A C15G G19U C31A] it is 0.01.

In the case of GGAAGAGCUCAACAGAGCGUAACAAAGUGGCUGUGGCUAGAAUGCU [C3A C15G G21A G22A C42A C46U], the self-cleavage came to 0.07. The figure for GGAAGAGCUCAACAUAACGUUGCAAAGUGGCUGUGGCUAGACUGCC [C3A C15U G17A G21U] is 0.07; for GGAAAAGCUCAACACAGCGUGGCAAAGUGGCUGUGGCUCGAUUGCC [C3A G5A A39C C42U] it is 0.24; for GGAAUAGCUCAACACAGCGUGGCAAAGUGGCUGCUGCUAGACUGCC [C3A G5U U34C G35U] it is 0.11. GGAAGAGCUCAACACAGCGUGGUAAAGUGGCUGUGGCGAGACUGCC [C3A C23U U38G]: the self-cleavage came out at 0.01.

Turning to GGAAGAGCUCAACAUAGCGUGGCAAACUGGCUGUGGCUAGACUGCC [C3A C15U G27C], the self-cleavage turned out to be 0.2. The value for GGAAGAGCUCAACAUAGAGUGGCAAAGUGGCUGUGGUUAGACUGCC [C3A C15U C18A C37U] was 0.14; that for GGAAAAGCUUACCACAGCGUGGCAGAGUGGCUGUGGCUAGACUGCC [C3A G5A C10U A12C A25G] was 0.03; that for GGAAGAGCUCAACAUAGCGUGGCAAAGUAGCUGUGGCUCGACUGCC [C3A C15U G29A A39C] was 0.09. The value for GGAAGAGCUCAACAUAGCGUGGCAAAGUGCCUGUGGCUAGACUGCA [C3A C15U G30C C46A] was 0.24. The figure for GGAAGAGCUCAACACAGUGUGGCAAAGUGGCUGUGGCUAUACCACC [C3A C18U G40U U43C G44A] is 0.16; for GGAACGGCUCAACACAGCGUGGCAAAAUGGCUGUGGCUAGACUGCA [C3A G5C A6G G27A C46A] it is 0.12. As for GGAACAGCUCAACCCAGCUUGGCAAAGUGGCUCUGGCUAGACUGCC [C3A G5C A14C G19U G33C], the self-cleavage was found to be 0.09. For the variant GGAAGAGCUCAACACAGUGGGGCAAUGUGGCUGUGGCCAGACUGCC [C3A C18U U20G A26U U38C], the self-cleavage came to 0.11. Take GGAAGAGCUCAACAUAGCGUGUCAAAGUGGCUGUGGCUAGACAGCC [C3A C15U G22U U43A]: the self-cleavage was 0.08. With GGAAGAGCUCAACACAGGGUGGCAUAGUGGCUGUGGCAAGGCUGCC [C3A C18G A25U U38A A41G], the self-cleavage amounted to 0.14.

On to GGAAGAGCUCAACACAGCGUGGCAAAGUGGCUGUGGCUAGAAUGGC [C3A C42A C45G], for which the self-cleavage stood at 0.5. Turning to GGAAGAACUCAACACAGAGUCGCAAAGUGGCUGUGGCUAGACUUCC [C3A G7A C18A G21C G44U], the self-cleavage amounted to 0.02.

Turning to GGAAUAGCUCAAUACAGCGUGGCUAAGUGGCUGUGGUUAGACUGCC [C3A G5U C13U A24U C37U], the self-cleavage was 0.41. The value for GGAAAAGCUCAACACUGCGUCGCAAAGUGGCUGUGGCUAGACUGCC [C3A G5A A16U G21C] was 0.08; that for GGAAUAGCUUAAUACUGCGUGGCAAGGUGGCUGUGCCUAGACUGCC [C3A G5U C10U C13U A16U A26G G36C] was 0.05. The value for GGAAAAGCUCAACACAGCGUGGCAAAGUGGCAGUGGCUACACUGCC [C3A G5A U32A G40C] was 0.12.
